Reference: the RNAGym collection of RNA variant scans (doi:10.1093/nar/gkz1192)
The source gives no read counts; variants with many changes may rest on few reads.

B1: CPEB3 Ribozyme (parent)
chain: UAACAGGGGGCCACAGCAGAAGCGUUCACGUCGCAGCCCCUGUCAGAUUCUGGUGAAUCUGCGAAUUCUGCUGUAUAUCUC

Variants of: B1
Assay: self-cleavage, relative activity (ratio to wild type); higher = more cleavage; in vitro, sequencing
Procedure, shortened: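 CPEB3 self-cleaving ribozyme mutant libraries were made by rounds of error-prone PCR, barcoded, and transcribed in vitro with T7 RNA polymerase for 5 hours at 37°C. Cleavage occurred during transcription and a 15 min DNase I step before EDTA stop. RNAs were reverse transcribed with template switching and Illumina-sequenced, with DNA sequencing mapping barcodes to variants. Relative activity is the variant's cleaved/total read fraction divided by wild type's (minimum 5 reads), averaged across three batches.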

Variant | self-cleavage
UAACAAGGGGCCACAGCAGAAGCAUUCACGUCGCAGCCCCUGUCAGAUUCUGGCGAAUCUGCGAAUUCUGCUGUAUAUCUC | 0.18
UAACAAGAGGCCACUGCAGAAGCGCUCACGUCGCAGCCCCUGUCAGAUCCUGGUCAAUCUGCGAAUUCUGCUGUAUAUCUC | 0.06
UAACAAGGGGCCACAGCAGAAGCGUUCACGUCGCAGCCCCUGUCAGAUUCUGGUGAAUCCGCGAAUACUGCUGUAUAUCUC | 0.37
UAACAAGGGGCCACAGCAGAAGCGCUCACGUCGCAGCCCCUGUCAGAUCCUGGUGAAUCUGCGAAUUCUGCUGUAUAUCUC | 0.2
UAACACGGGGCCGCAGCAGAAGCGUUCACGUUGCAGUCCCUGUCAGAUUCUGGUGAAUCUGCGAAUUCUGCUGUAUACCUC | 0.06
UAACAAGGGGCCACAGCAGAAGCAUUCACGUCGCAGCCCCUGUCAGAUUCUGGGGAGUCUGCGAAUUCUGCCGUAUAACUC | 0.06
UAACAAGGGGCCACAGCAGAAGCGUCCACGUCGCAGCCCCUGUCAGAUUCUGGUGAAUCUGCGAAUUCUGCCGUAUAUCAC | 0.07
UAACAAGGGGCCACAGCAGAAGCGUUCACGUCGCAGCCCCUGUCAGAAUCUGGUGAGUCUGCGAGCUCUGCUGUAUAUCUC | 0.05
UAACACGGGGCCACAGCAGAAGCGUUCACGUCGCAGCCCCUGUCAGAUUCUGGUGAAUCUGCGAAUUCUCCUGCAUAUCUC | 0.17
UAACACGGGGCCACAGCAGAAGCGUCCACGUCGCGGCCCCUGUCAGAUUCUGGUGUAUCUGCGAAUUCUGCUGUAUAUCUC | 0.25
UAACAAGGGGCCACAGCAGAAGCGUUCACGUCGCAGCCCCUGUCAGACUUUGGUGAAUCUGCGAACUCCGCUGUAUAUCAC | 0.16
UAACAAGGGGCCACAACAGAAGCGUUCACGUCGCAGCCCCUGACAGAUUCUGGUGAAUCUGCGAAUUCUGCUGUAUAUCUC | 0.14
UAACAUGGGGCCACUGCAGAAGCGUUCAUGUCGCAGCCCCCGUCGGAUUCUGGUGAAACUGCGAAUUCUGCUGUAUAUCUC | 0.06
UAACAAGGGGCCACAGCAGAAGCGUACACGUCGCAGCCCCUGUCAGAUUCUGGUGAAUCUGCGAAUUCUGCCGUAUAUCAC | 0.31
UAACAAGGGGCCACAGCAGAAGCGCUCACGUUGCAGCCCCUGUCAGAUUCUGGUGAAUCUGCGAAUUCUGCUGUAUAUCAC | 0.31
UAACACGGGGCCACAGCUGAAGCGUUCGCGUCGCAGCCCCUGUCAGAUUCUGGUGAAUUAGCGAAUUCUGCUGUAUAACUC | 0.06
UAACAAGGGGCCACAGCAGAAGCGUUCACGUCGCAGCCCCUGACAGGUUCUGGUGAAUCUGCGAAUUCUGCUGAAUAUCUC | 0.24

Variant | self-cleavage
UAACAAGGGGCCACAGCAGAAGCGUUCACGUCGCAGCCCCUGUCAGAUUCUGGUGAACCCGCGAAUUCUGCUGUAUAUCUC | 0.22
UAACAAGGGGCCACAGCAGAAGCGUACACGUCGCUGCCCCUGUCAGAUUCUGGUGAAUCUGCGAAUUCAGCAGUAUAUCUC | 0.05
UAACAAGGGGCCACAGCAGAAGCGUUCACGUCGCAGCCCCUGCCAGAUUCAGGUGAGUCUGCGAAUUCCGCUGUAUAUCUC | 0.1
UAACAAGGGGCCACAGCAGAAGCGUCCACGUCGCAGCCCCUGUCGGAUUCUGGUGAAUCUGCGAAUUCUGCUGUAUUACUC | 0.28
UAACAAGGGGCCACAGCAGAAGCGUCCACGUCGCGGUCCCUGUCAGACUCAGGUGAAUCUGCGAAUUCUGCAGUAUAUCUC | 0.2
UAACAAGGGGCCACAGCAGAAGCGUUCACGUCGCAGCCCCUGUCAGAUUCUGGUGAAUCCGCGAAUUCUGCUGUAUAUCCC | 0.47
UAACAAGGGGCCACAGCAGAAGCGCUCACGUCGCAGCCCCUGUCAGAUUCUGGAGAAUCUGCGAACUCUGCUGUAUAUCUC | 0.13
UAACACGGGGCCACGGCAGAAGCGUUCACGUCGCAGCCCCUGUCAGAUUCGGGUGGAUCCGCGAAUUCUGCUGUAUAUCUC | 0.14
UAACAUGGGGCCACGGCAGAAGCGUUCACGUCGCAGCCCCAGUCAGAUUCUGGUGAAUCUGCGAAUUCUGCAGUAUAUCUC | 0.09
UAACAAGGGGCCACAGCAGAAGCGUUCACGUCGCAGCCCCUGUCAAAUUCAGGUGAACCAGCGAAUACUGCCGUAUAUCUC | 0.17
UAACAAGGGGCCACAGCAGAAGCGUUCACGACGCAGCCCCUGUCAGAUACUGGUGAAUCUGCGAAUUCUGCUGUAUAUCUC | 0.06
UAACAAGGGACCACAGCAGAAGCGCUCACGUCGCAGCCCCUGUCAGAUUCUGGUGAAUCUGCGAAUUCUGCAGUUUAUCUC | 0.05
UAACAAGGGGCCACAGCAGAAGCGUUCACGUCGCAGCCCCUGUCAGAUUCUGGCGAAUCAGCGAAUUCUGCUGUAUAUCUC | 0.1
UAACAAGGGGCCACAGCAGAAGCGAUCACGUCGCAGCCCCUGUCAGAUUCUGGUGAGUCUGCGAAUUCUGCUGUAUAUCUC | 0.26
UAACAAGGGACCACAGCAGAAGGGUUCACGUCGCAGCCCCUGUCAGAUUCUGGUGAAUCUGCGAACUCUGCUGUAUAUCUC | 0.04
UAACAUGGGGCCUCAGCAGAAGCGUUCACGUCGCAGCCCCUGUCAGAUUCUGGUGAAUCCGCGAAUUCUGCUGUAUACCUC | 0.21
UAACAAGGGGCCACAGCAGAAGCUUUCACGUCGCAGCCCCUGACAGAUUCUGGUUAAUCUGCGAAUUCUGCUGUAUAUCUC | 0.07
